Results from PubChem BioAssay AID651820 (National Center for Advancing Translational Sciences (NCATS), 2012).
The campaign covered roughly 340,000 compounds. About 12,000 (3.5%) were called active. Inconclusive means that the source gave no clear call. Such entries were picked first, then a sample of the others. Calls come from the whole dose curve; as a rule, active = well fitted inhibition curve with a large enough effect; inconclusive = small, poorly fitted or top-dose-only effect, or another doubt; inactive = no such curve, though single readings can be large or run the other way. No potency is given beside an inconclusive call; the fits are too rough.

Test: qHTS Assay for Inhibitors of Hepatitis C Virus (HCV)
Settings: Huh7.5.1 HCVcc-Cre (HCVcc is cell-culture hepatitis C virus) infection, luciferase reporter, 44 h; activity change, negative = inhibition: at 41.8 µM (top of the series) unless noted
How it was run: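 A cell-based infection assay in which seeded cells (1,000 per well) receive test compound after 4 h, are inoculated with HCVcc-Cre at approximately 0.5 moi, and are incubated 44 h before luminescence detection.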
% is set by controls: 0 for no effect and ±100 for the full control effect; potency is the fitted concentration of half-maximal effect; tags give direction and shape of the fitted curve.

Structure (SMILES) | activity change, negative = inhibition | Potency
O=C(CN1CCOCC1)Nc1ccccc1Sc1ccc(Cl)cc1 | inconclusive: -69.4% [inhibitor] | –
Cc1ccc(C(=O)N/C(=C/c2ccc(-c3cccc([N+](=O)[O-])c3)o2)C(=O)NC(C)(C)C)cc1 | – | inconclusive [inhibitor, partial curve]
CCN(CC)S(=O)(=O)c1ccc(NN=C(C#N)C#N)cc1 | – | inconclusive [inhibitor, single point]
COc1ccc(OC)c(Cc2cnc3nc(N)nc(N)c3c2C)c1 | – | inconclusive [inhibitor, full curve]
CCN1CCCC1CNC(=O)c1ccc2c(c1)N(Cc1ccccc1F)C(=O)c1ccccc1S2(=O)=O (configuration not stated) | – | active: 10 µM
O=S1(=O)C=CC(Nc2cccc(Cl)c2)C1 (configuration not stated) | – | inconclusive [inhibitor, single point]
CCOC(=O)C1(CC)Oc2ccccc2C(c2ccc(OC)cc2)=C1C(=O)OC (configuration not stated) | inactive: -9.28% | –
Cc1csc(=O)n1CCC(=O)OCC(=O)c1c(N)n(C)c(=O)n(C)c1=O | – | inconclusive [inhibitor, single point]
O=c1[nH]nc(-c2ccccc2)c2ccccc12 | inactive: 32.6% | –
CC1CCN(CC(=O)N2CCCc3c2c(=O)oc2ccc(OCc4ccccc4)cc32)CC1 | – | inconclusive [inhibitor, single point]
CNC(=O)c1[nH]nc2c1CCc1cc(OC)ccc1-2 | – | inconclusive [inhibitor, single point]
O=C(N1CCN(c2cccc(Cl)c2)CC1)C1(S(=O)(=O)c2ccc(Cl)cc2)CC1 | – | inconclusive [inhibitor, partial curve]
O=C(O)C[C@H]1c2cc(F)ccc2S(=O)(=O)N1C1CCN(Cc2ccccc2)CC1 | inactive: 18.5% | –
CCCOc1ccc(Br)cc1CSC(=N)N | – | inconclusive [inhibitor, full curve]
CC1CCCC(C)N1CC(O)COCc1ccccc1 (configuration not stated) | inactive: 8.38% | –
O=C(CSCc1c(Cl)cccc1Cl)Nc1ccccc1-c1ccccc1 | – | inconclusive [inhibitor, partial curve]
CC1c2cc3c(cc2CCN1CC(=O)Nc1ccccc1)OCCCO3 (configuration not stated) | – | inconclusive [inhibitor, partial curve]
COc1ccccc1NC(=O)c1nc(S(=O)(=O)Cc2ccccc2)ncc1Cl | – | inconclusive [inhibitor, single point]
O=C(CSc1nc(-c2ccc(Cl)cc2)cs1)Nc1cccc([N+](=O)[O-])c1 | – | active: 12.6 µM
COc1ccc(S(=O)(=O)n2nc(-c3ccc(Cl)cc3)cc2N)cc1OC | – | inconclusive [inhibitor, single point]
Cc1cc(O)cc(C)c1NS(=O)(=O)c1ccc2ccccc2c1 | inactive: -27.5% | –
CC1=C(C(=O)OCc2ccccc2)C(c2ccc(N(C)C)cc2)NC(=O)N1 (configuration not stated) | – | inconclusive [inhibitor, partial curve]
CCn1c(=O)c2cc(C(=O)NCCN3CCOCC3)sc2c2ccccc21 | – | active: 11.2 µM
O=C(CSc1ncnc2ccccc12)Nc1cc(S(=O)(=O)N2CCCCC2)ccc1Cl | – | active: 10 µM

Structure (SMILES) | activity change, negative = inhibition | Potency
Cc1cc2nc(SCCN3CCCC3)[nH]c2cc1C | inactive: -23.3% | –
O=C(c1cc(F)ccc1F)C1CCCN(Cc2ccc3nonc3c2)C1 (configuration not stated) | – | inconclusive [inhibitor, single point]
O=C(Nc1ccc2c(c1)OCO2)C1CCCN(c2nc3ccccc3s2)C1 (configuration not stated) | – | inconclusive [inhibitor, partial curve]
CCSc1ccc([C@@H]2[C@@H]3C(=O)N(CC)C(=O)[C@@H]3[C@]3(C(=O)OC)CCCCN23)cc1OC | – | inconclusive [inhibitor, partial curve]
COc1ccccc1/C=C/c1nc(S(=O)(=O)c2ccccc2)c(N2CCC(C(N)=O)CC2)o1 | – | inconclusive [inhibitor, partial curve]
CC1CCN(C(=O)Cn2c(=O)oc3ccccc32)CC1 | inactive: 8% | –
O=c1c(Cc2ccc(F)cc2)c(O)ccn1CCCN1CCOCC1 | inactive: -3.51% | –
C/C(=N\NC(=O)c1ccc(N2CCCC2=O)cc1)c1ccc(O)cc1O | – | inconclusive [inhibitor, partial curve]
CN1CCN(S(=O)(=O)c2ccc(NC(=S)NC(=O)c3ccccc3)cc2)CC1 | inactive: 1.47% | –
CCOC(=O)C1(CCc2ccccc2)CCN(Cc2c(O)cccc2OC)CC1 | – | inconclusive [inhibitor, partial curve, poor fit]
Nc1cccc(-c2nc3ccc(C(=O)c4ccccc4)cc3[nH]2)c1 | – | inconclusive [inhibitor, partial curve]
CCCC(=O)Nc1cccc(NC(=O)CN2CCN(c3ccccc3OC)CC2)c1 | – | inconclusive [inhibitor, partial curve]
N=c1c(C(=O)NC2CCCCC2)cc2c(=O)n3ccccc3nc2n1Cc1ccccc1 | – | active: 11.2 µM
Cc1cccc(Nc2ncnc3c2cnn3C)c1 | inactive: 6.97% | –
COc1cc(-c2cc(N)n(S(=O)(=O)c3ccccc3)n2)cc(OC)c1OC | – | inconclusive [inhibitor, single point]
O=C(Nc1cccc(NC(=O)c2cccs2)c1)c1ccc([N+](=O)[O-])o1 | – | active: 10 µM
Cc1cccc(NC(=O)c2cc(-c3cccnc3)nc3c(C)cccc23)n1 | – | inconclusive [inhibitor, single point]
CCOc1cc(NC(=S)NCc2ccccc2)c(OCC)cc1NC(=O)C(C)C | inactive: -11.5% | –
Cc1csc2nc(O)c(C(=O)NCCCc3ccccc3)c(=O)n12 | – | inconclusive [inhibitor, single point]
COc1ccc(N2C(=O)N3[C@@H]4c5ccccc5OC[C@@H]4[C@@H](c4ccccc4)[C@@]3(C)C2=O)cc1 | – | inconclusive [inhibitor, full curve]
O=C(Nc1ccc2c(c1)OCO2)c1ccc([N+](=O)[O-])cc1[N+](=O)[O-] | – | inconclusive [inhibitor, partial curve]
N/C(=N\NC(=O)Nc1ccccc1)c1ccccn1 | inactive: 11.8% | –
Nc1cc(S(=O)(=O)Nc2ccccc2Cl)ccc1N1CCCCC1 | – | active: 6.31 µM
CCOc1ccc2oc(C(=O)N(CC)CC(=O)Nc3ccc(NC(C)=O)cc3)c(C)c2c1 | inactive: -16.3% | –

Structure (SMILES) | activity change, negative = inhibition | Potency
COC(=O)C1=C(c2ccc(F)cc2OCc2ccccc2)C[C@@H]2CC[C@H]1N2C(=O)NCCOc1ccc(OC)cc1 | – | inconclusive [inhibitor, single point]
COc1ccc(N=Nc2c(-c3ccc(OC)cc3)[nH]oc2=O)cc1 | – | inconclusive [inhibitor, full curve, poor fit]
N#Cc1cnc2nc(SCc3ccccc3)nn2c1 | inactive: 7.49% | –
COC(=O)c1ccc(CN2[C@H](C(=O)OC)C[C@@]3(O)[C@H](O)[C@H](O)[C@H](O)C[C@@H]23)cc1 | inactive: 5.94% | –
COc1cccc(C(=O)Nc2sc3c(c2C(=O)O)CCCC3)c1 | – | active: 12.6 µM
COc1cc(O)c(CCC(=O)c2ccc(OC)c(OC)c2)c(OC)c1 | – | inconclusive [inhibitor, partial curve]
CCOC(=O)C1CCN(C(=O)COC(=O)C2CCN(S(=O)(=O)c3ccc(C)c(C)c3)CC2)CC1 | – | inconclusive [inhibitor, partial curve]
COc1ccc(OC)c(CCNC(=O)c2ccc(CS(=O)(=O)c3ccc(Br)cc3)o2)c1 | – | inconclusive [inhibitor, single point]
COc1ccc2cc(C#N)c(N3CCN(C(=O)c4ccccc4C)CC3)nc2c1 | – | inconclusive [inhibitor, partial curve]
Cc1ccc(C(=O)NCC(C)NC(=O)c2ccc(C)c(C)c2)cc1C (configuration not stated) | – | inconclusive [inhibitor, partial curve]
COc1ccc(OC)c(C2=C/C(=C/c3ccccn3)C(=O)O2)c1 | inactive: 6.5% | –
C#Cc1ccc([C@@H]2C=C(C(=O)N3CCOCC3)O[C@H](OCCCCO)C2)cc1 | inactive: -2.31% | –
CN1CCN(c2ccc(-c3ccnn3C(=O)Nc3ccccc3)cc2)CC1 | inactive: 20.2% | –
COC(=O)c1sc(N)c(C(=O)OC)c1Cn1ncc(Cl)c(Cl)c1=O | – | active: 11.2 µM
c1ccc(Nc2cc(-c3ccccc3)nc3ncnn23)cc1 | – | inconclusive [inhibitor, partial curve]
Cn1c(Sc2ccc(Cl)cc2)c(C=O)c2ccccc21 | – | active: 10 µM
c1ccc(-c2nnc(-c3ccccc3)o2)cc1 | inactive: -5.34% | –
COc1ccc(N/C(=N\c2nc(C)cc(C)n2)NC(C)=O)cc1OC | – | inconclusive [inhibitor, single point]
CC(=O)N1CCN(c2ccccc2NC(=O)Cc2ccc(Cl)cc2)CC1 | inactive: 6.36% | –
O=C(c1ccc(Br)o1)N(Cc1ccccc1)Cc1ccccc1 | – | inconclusive [inhibitor, single point]
CC1(c2cccc([N+](=O)[O-])c2)CC(C)(C)N(C(=O)c2ccccc2)c2ccccc21 (configuration not stated) | – | inconclusive [inhibitor, single point]
COc1cccc(-c2cc(C(=O)N/N=C/c3cccc(OC)c3OC)c3ccccc3n2)c1 | – | inconclusive [inhibitor, partial curve, poor fit]
CCCN(CCC)CCCNC(=O)C1c2cc(OC)c(OC)cc2C(=O)N(C)C1c1cccs1 (configuration not stated) | inactive: 1.81% | –
C=C1C(=O)OC2C=C(CO)C3OC3C3OC3(C)CC(OC(=O)/C(=C/C)COC(C)=O)C12 (configuration not stated) | – | inconclusive [inhibitor, full curve]
